Measured values taken from the supplement of paper PMC3334620.
Whole data set: some 33,000 sequences, median “E-score (-0.5 to 0.5)” near -0.053, cut for the highest 2% near 0.37. The list shows a part of the results.

What follows are sequences tested against Hap1 (UniProt P0CE41) (assay: PBM E-score (8-mer binding enrichment) (E-score (-0.5 to 0.5)); higher = stronger / more preferred TF binding; most listed sequences are background and not binding sites). Details: protein concentration: 200 nM; construct: GST-DNA-binding domain.
Method: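 Universal 'all 10-mer' protein binding microarrays (Agilent AMADID 015681) probed with GST-tagged S. cerevisiae TFs (full-length or DBD) made by in vitro transcription/translation (PURExpress), about 100-200 nM. Bound TF was detected with fluorescent anti-GST. Each ungapped 8-mer (which stands for itself and its reverse complement) is scored by the PBM enrichment score (E-score), a modified Wilcoxon-Mann-Whitney statistic from -0.5 to +0.5, computed with the Universal PBM Analysis Suite. Scale: above 0.35 generally sequence-specific binding.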

Chain of UniProt P0CE41 (P0CE41 whole entry, the tested form may be a part): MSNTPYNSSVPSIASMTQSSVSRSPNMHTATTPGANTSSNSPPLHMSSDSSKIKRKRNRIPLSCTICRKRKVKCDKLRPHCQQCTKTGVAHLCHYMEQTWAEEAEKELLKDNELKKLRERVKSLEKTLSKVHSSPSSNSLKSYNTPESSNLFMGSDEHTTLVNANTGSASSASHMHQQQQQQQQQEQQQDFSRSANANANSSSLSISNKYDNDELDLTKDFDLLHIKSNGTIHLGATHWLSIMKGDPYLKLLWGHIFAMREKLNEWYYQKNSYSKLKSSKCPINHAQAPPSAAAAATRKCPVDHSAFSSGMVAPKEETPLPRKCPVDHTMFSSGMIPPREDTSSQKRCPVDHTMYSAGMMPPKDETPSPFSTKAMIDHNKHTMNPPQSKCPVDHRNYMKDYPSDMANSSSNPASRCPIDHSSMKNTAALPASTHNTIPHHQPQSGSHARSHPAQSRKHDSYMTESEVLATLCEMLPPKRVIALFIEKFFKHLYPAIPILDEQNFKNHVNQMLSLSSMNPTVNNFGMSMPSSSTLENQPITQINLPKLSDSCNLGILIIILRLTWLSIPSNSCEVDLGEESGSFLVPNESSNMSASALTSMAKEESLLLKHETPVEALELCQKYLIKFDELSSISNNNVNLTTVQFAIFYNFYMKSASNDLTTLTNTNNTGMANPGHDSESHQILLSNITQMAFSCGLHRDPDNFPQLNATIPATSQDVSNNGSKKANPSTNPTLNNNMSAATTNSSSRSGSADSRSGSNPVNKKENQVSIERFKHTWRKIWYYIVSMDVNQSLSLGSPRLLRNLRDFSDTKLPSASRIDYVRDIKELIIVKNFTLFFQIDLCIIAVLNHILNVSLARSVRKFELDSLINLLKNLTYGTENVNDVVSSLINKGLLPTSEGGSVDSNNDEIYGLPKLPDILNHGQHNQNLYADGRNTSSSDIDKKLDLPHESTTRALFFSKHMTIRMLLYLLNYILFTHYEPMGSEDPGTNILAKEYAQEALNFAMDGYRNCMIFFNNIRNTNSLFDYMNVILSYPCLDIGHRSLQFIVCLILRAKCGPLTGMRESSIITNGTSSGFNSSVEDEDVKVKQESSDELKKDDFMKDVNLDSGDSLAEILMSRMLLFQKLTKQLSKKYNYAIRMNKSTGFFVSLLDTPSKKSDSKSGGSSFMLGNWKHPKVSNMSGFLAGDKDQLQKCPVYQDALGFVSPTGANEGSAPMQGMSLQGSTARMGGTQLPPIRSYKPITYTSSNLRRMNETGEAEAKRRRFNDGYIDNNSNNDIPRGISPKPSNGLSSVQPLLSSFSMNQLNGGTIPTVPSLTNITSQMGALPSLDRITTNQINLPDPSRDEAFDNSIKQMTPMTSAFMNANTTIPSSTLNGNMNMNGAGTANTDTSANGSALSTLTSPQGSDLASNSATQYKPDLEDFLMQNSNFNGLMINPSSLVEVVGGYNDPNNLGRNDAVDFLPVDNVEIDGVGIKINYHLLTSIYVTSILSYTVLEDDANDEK

Sequence | PBM E-score
GATAGGGC | -0.0616
GCGATTTA | 0.104
AAAGGAAT | 0.0441
CCCCCGAA | 0.312
GCCGGAAA | 0.395
TAGTCACA | -0.195
CTAAGGAG | -0.293
CCCGTATC | 0.09
GAGCCTCA | -0.213
GGTTGCAC | -0.0587
CAAACGGA | 0.324
ACACTGCG | -0.0754
CTACCTCC | 0.224
AAGGAGGG | -0.302
AAAGTGCA | -0.00797
ACTGCCCT | -0.0641
ACCCATAC | -0.209
AAAAAGGC | 0.0231
TCCAGACA | -0.102
GACTTGTA | -0.0573
AGCCCAGG | -0.303
AACTGAGT | 0.0279
CCTCCTCA | -0.13
AGACACGC | -0.0363
AATGGTAT | -0.17

Sequence | PBM E-score
GAGACGCC | 0.0301
GTAACTCA | -0.065
ATCAAAGC | 0.0826
TAGCTACA | -0.0941
TAGCGAAA | -0.228
ACAGCTGT | -0.0641
TCGGCCGA | 0.48
TCACCGGA | 0.373
GGAGAAAC | 0.182
ACATAGAT | -0.0216
CGCGGCGC | 0.193
ATCGCTGA | 0.0794
CAAGAGAC | -0.289
CCCCACAC | -0.0638
CCCCTTTC | -0.0234
ATGTGATG | -0.15
ACTCGGAA | 0.344
TTCAGCAA | -0.343
ACAACCGC | 0.172
TATCGGCA | 0.425
CCCCAATC | -0.0374
GGGCCCAC | 0.0877
ACCGCTCA | 0.0211
ATTTCGAC | -0.0741
AATTTGAT | -0.046

Sequence | PBM E-score
CGTCGCTC | 0.0823
CGGGAGTA | 0.339
GCAACAGC | -0.105
GTCATGAC | -0.111
ACCCTAGT | -0.314
CGAAACAA | 0.147
ACCAAATG | -0.0322
AAGAGCGA | 0.122
GCAATCCA | -0.0428
GAAACTCA | -0.096
CGGATAAG | 0.31
CGTGGCCC | -0.0117
AATCTCGA | -0.146
GGGGTGCA | 0.0557
CGACTGCG | 0.0793
ACCATATA | -0.14
ATGCACGC | -0.0214
CGTACAAC | -0.0551
GTCCTGCA | -0.301
ACATTTCG | 0.0432
ATGGTCCG | 0.365
CCCCCCGA | 0.253
CAAGAAAC | 0.106
ATGCGGGC | 0.0246
CGGTGTTA | 0.465

Sequence | PBM E-score
ACATCAGT | -0.015
ATGAGTAG | 0.0588
ACGTTGTC | -0.0818
CGAGACAG | 0.0426
GAAAGTTA | 0.0553
CATGAGCG | -0.0122
GCCCTAGA | -0.296
GACCTATC | 0.116
AATAAACT | 0.194
AAGCACGC | -0.113
TCCTACAA | -0.0619
AGTCGCAG | -0.0678
ACCAGGCT | -0.306
GGTTGGAA | 0.0878
TGCCCACA | -0.249
GCCCCGTA | 0.0466
CAACCCAA | -0.256
GGCCACTA | -0.0966
AAACTCAG | -0.0738
CGCCCGAA | 0.294
CCACCATC | 0.0209
ATTCCATA | 0.0177
TGGGCTAA | -0.108
CCTCGGCG | 0.37
AACGGTCG | 0.23

Sequence | PBM E-score
AAGTCGAC | -0.054
AGGAGCCC | -0.049
AAAACACA | 0.00248
AAAAAAAG | -0.0704
CCTCAGTC | -0.111
GATGAAAA | -0.0269
CTTCAACA | -0.222
AAATGCTC | 0.0505
CTTCTTAA | 0.00735
AGCAATTC | -0.0245
AGGGCGCG | -0.0446
ACGGGGTG | 0.077
TGAATTAA | -0.0149
CCTTCACC | -0.142
AGATTGGG | -0.0446
AAAACGCT | -0.158
AGGAATTC | -0.27
ACCGTCCA | 0.0238
CAACTATA | -0.13
ATGCAGCA | -0.0867
CAACGGTG | 0.0704
CACCGCGA | 0.00564
ACGTCAAT | -0.206
AAAATTTC | 0.0653
ACTAGGTC | -0.0578

Sequence | PBM E-score
GATCGCCC | -0.0362
CGATTTAC | 0.149
AATGTTTA | -0.148
ATTACCCA | -0.114
TCTTATCA | -0.0253
CGACGGCC | 0.245
ACGAGCCG | 0.0797
ACAAGCTA | -0.272
ACAGTCAT | -0.143
AACAGTCA | -0.16
ACCGCTCC | 0.142
CGGTAACC | 0.27
AGTGGCAC | -0.183
GTTCAAAC | 0.0658
ATGAAGAG | -0.107
ATGACTCA | -0.211
AAGTGAGG | -0.269
CTTCGAAA | -0.279
CAAGAATA | 0.00826
ATCTACGC | 0.148
TGGTAGAA | -0.258
TAAAAGAA | -0.225
CATACTGC | -0.186
CCCTACCG | 0.157
CAGGCGGG | -0.191

Sequence | PBM E-score
CTTCGATC | -0.0454
TGCACACA | -0.238
CACAACGG | 0.11
CATGGCCG | 0.254
ATGGAAGG | -0.0671
CCTTGAGC | -0.149
GATCCGTA | 0.225
GAACCTGC | -0.127
AAGCCGTC | 0.27
ACTGTCAT | -0.183
AGATTTAC | -0.103
AAACAGGC | -0.148
GGAGAGAA | 0.0186
AAGAACAA | 0.0116
ATGGTACC | -0.0818
CCTGCCCG | 0.159
AGAATGTG | -0.244
GTGAGATA | 0.0588
AGACTAAA | 0.0455
CACGCCAG | -0.075
ATCCGAGC | 0.356
CCACGAAG | -0.212
